Results reported in paper PMC12240770.
Positions count from the first letter of the chain named. Results are given in words; binding and its absence hold for the method and conditions named. Binding seen in cells or lysates may run through a third protein. Some entries that bind do so weakly or less than the wild type. For part of these data: Where a sequence is shown, tags or fusion partners need not be part of it.

By UniProt entry, the sequences of proteins in these tests, tags left out. Where a name states a change or a piece, a line headed by the entry shows the natural chain unless it says otherwise.
UniProt Q8BGW1: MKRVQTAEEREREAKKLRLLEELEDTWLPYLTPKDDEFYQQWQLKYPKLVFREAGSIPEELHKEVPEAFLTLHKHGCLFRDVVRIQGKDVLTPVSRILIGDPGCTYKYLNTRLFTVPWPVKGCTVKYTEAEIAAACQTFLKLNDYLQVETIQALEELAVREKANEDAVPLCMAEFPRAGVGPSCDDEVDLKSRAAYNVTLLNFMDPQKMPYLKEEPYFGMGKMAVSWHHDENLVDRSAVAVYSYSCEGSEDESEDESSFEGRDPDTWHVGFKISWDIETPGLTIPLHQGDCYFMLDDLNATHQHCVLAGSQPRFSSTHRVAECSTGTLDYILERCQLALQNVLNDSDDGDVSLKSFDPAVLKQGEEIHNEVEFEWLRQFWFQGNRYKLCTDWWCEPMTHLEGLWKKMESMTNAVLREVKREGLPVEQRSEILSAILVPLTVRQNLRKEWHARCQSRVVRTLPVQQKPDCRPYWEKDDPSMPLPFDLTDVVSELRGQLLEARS
UniProt P19474: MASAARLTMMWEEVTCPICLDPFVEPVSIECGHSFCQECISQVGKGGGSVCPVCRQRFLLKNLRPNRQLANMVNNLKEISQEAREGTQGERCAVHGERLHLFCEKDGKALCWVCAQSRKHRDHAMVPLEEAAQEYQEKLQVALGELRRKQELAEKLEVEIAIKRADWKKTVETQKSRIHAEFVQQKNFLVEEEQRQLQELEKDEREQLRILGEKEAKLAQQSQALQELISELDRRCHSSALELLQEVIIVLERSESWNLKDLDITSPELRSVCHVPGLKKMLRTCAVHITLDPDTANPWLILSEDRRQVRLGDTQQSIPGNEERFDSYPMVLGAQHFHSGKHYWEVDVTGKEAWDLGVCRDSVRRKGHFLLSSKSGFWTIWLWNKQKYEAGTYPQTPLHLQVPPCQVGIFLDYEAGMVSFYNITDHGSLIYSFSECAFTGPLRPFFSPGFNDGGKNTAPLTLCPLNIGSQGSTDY

What was measured:
[1] = biological target: Flag-FTO, full length, wild type (HEK293T) (mouse) (UniProt Q8BGW1); experiment: co-IP; HEK293T transfected with Flag-Fto constructs for 48 h (with HA-K48 and Myc-Ogt WT or K908A in Figure 6I); IP with anti-Flag; immunoblot for OGT or TRIM21 for which the legend names no plasmid
[2] = biological target: Flag-FTO, full length, wild type (RAW264.7) (mouse) (UniProt Q8BGW1); experiment: co-IP; RAW264.7 transfected with Flag-Fto and HA-K48 for 48 h, then TMG or OSMI-1 for 24 h; Co-IP and immunoblot
[3] = biological target: fat mass and obesity-associated protein (FTO), endogenous in BMDMs (mouse (endogenous in BMDMs)) (UniProt Q8BGW1); experiment: co-IP; endogenous proteins in BMDM lysates (RIPA buffer with PMSF); antibody (anti-FTO, or in reverse anti-OGT or anti-TRIM21) plus protein-A/G magnetic beads; immunoblot; cells unstimulated or treated with LPS
Flag-FTO (S95A) (mouse) [4] = biological target: Flag-FTO (S95A) (mouse) (UniProt Q8BGW1); experiment: co-IP; HEK293T co-transfected with Flag-Fto constructs and Myc-tagged partner (Myc-Ogt constructs or Myc-Trim21; HA-K48 in Figure 6J) for 48 h; RIPA lysate; IP with anti-Flag, immunoblot against Myc and Flag
[5] = biological target: Flag-FTO, full length, wild type (HEK293T) (mouse) (UniProt Q8BGW1); experiment: as above
Flag-FTO (S226A) (mouse) = Flag-FTO (S226A) (mouse) (UniProt Q8BGW1); experiment: co-IP; HEK293T transfected with Flag-Fto constructs for 48 h (with HA-K48 and Myc-Ogt WT or K908A in Figure 6I); IP with anti-Flag; immunoblot for OGT or TRIM21 for which the legend names no plasmid
Flag-FTO (S237A) (mouse) = Flag-FTO (S237A) (mouse) (UniProt Q8BGW1); experiment: as above
Flag-FTO (S95A) (mouse) [6] = biological target: Flag-FTO (S95A) (mouse) (UniProt Q8BGW1); experiment: as above
Flag-FTO (T92A) (mouse) = Flag-FTO (T92A) (mouse) (UniProt Q8BGW1); experiment: as above
[7] = biological target: Flag-FTO, full length, wild type (HEK293T) (mouse) (UniProt Q8BGW1); experiment: as above; remark: listed apart in the source

## TRIM21 in HEK293T cells transfected with Flag-Fto, HA-K48 and Myc-Ogt (from UniProt P19474 1-475) (enzyme)
[1]
  binding: binds

B1: tripartite motif family member TRIM21, endogenous in mouse macrophages (enzyme, UniProt Q62191 1-470)
chain: MSPSTTSKMSLEKMWEEVTCSICLDPMVEPMSIECGHCFCKECIFEVGKNGGSSCPECRQQFLLRNLRPNRHIANMVENLKQIAQNTKKSTQETHCMKHGEKLHLFCEEDGQALCWVCAQSGKHRDHTRVPIEEAAKVYQEKIHVVLEKLRKGKELAEKMEMDLTMQRTDWKRNIDTQKSRIHAEFALQNSLLAQEEQRQLQRLEKDQREYLRLLGKKEAELAEKNQALQELISELERRIRGSELELLQEVRIILERSGSWNLDTLDIDAPDLTSTCPVPGRKKMLRTCWVHITLDRNTANSWLIISKDRRQVRMGDTHQNVSDNKERFSNYPMVLGAQRFSSGKMYWEVDVTQKEAWDLGVCRDSVQRKGQFSLSPENGFWTIWLWQDSYEAGTSPQTTLHIQVPPCQIGIFVDYEAGVVSFYNITDHGSLIYTFSECVFAGPLRPFFNVGFNYSGGNAAPLKLCPLKM
[2]
  binding: binds
[3]
  binding: binds

B2: Myc-TRIM21 (HEK293T) (enzyme, UniProt Q62191 1-470)
chain: B1 chain
Flag-FTO (S95A) (mouse) [4]
  binding: no binding
[5]
  binding: binds

B3: O-GlcNAc transferase (OGT), endogenous in BMDMs (enzyme, UniProt Q8CGY8 1-1046)
chain: MASSVGNVADSTEPTKRMLSFQGLAELAHREYQAGDFEAAERHCMQLWRQEPDNTGVLLLLSSIHFQCRRLDRSAHFSTLAIKQNPLLAEAYSNLGNVYKERGQLQEAIEHYRHALRLKPDFIDGYINLAAALVAAGDMEGAVQAYVSALQYNPDLYCVRSDLGNLLKALGRLEEAKACYLKAIETQPNFAVAWSNLGCVFNAQGEIWLAIHHFEKAVTLDPNFLDAYINLGNVLKEARIFDRAVAAYLRALSLSPNHAVVHGNLACVYYEQGLIDLAIDTYRRAIELQPHFPDAYCNLANALKEKGSVAEAEDCYNTALRLCPTHADSLNNLANIKREQGNIEEAVRLYRKALEVFPEFAAAHSNLASVLQQQGKLQEALMHYKEAIRISPTFADAYSNMGNTLKEMQDVQGALQCYTRAIQINPAFADAHSNLASIHKDSGNIPEAIASYRTALKLKPDFPDAYCNLAHCLQIVCDWTDYDERMKKLVSIVAEQLEKNRLPSVHPHHSMLYPLSHGFRKAIAERHGNLCLDKINVLHKPPYEHPKDLKLSDGRLRVGYVSSDFGNHPTSHLMQSIPGMHNPDKFEVFCYALSPDDGTNFRVKVMAEANHFIDLSQIPCNGKAADRIHQDGIHILVNMNGYTKGARNELFALRPAPIQAMWLGYPGTSGALFMDYIITDQETSPAEVAEQYSEKLAYMPHTFFIGDHANMFPHLKKKAVIDFKSNGHIYDNRIVLNGIDLKAFLDSLPDVKIVKMKCPDGGDNPDSSNTALNMPVIPMNTIAEAVIEMINRGQIQITINGFSISNGLATTQINNKAATGEEVPRTIIVTTRSQYGLPEDAIVYCNFNQLYKIDPSTLQMWANILKRVPNSVLWLLRFPAVGEPNIQQYAQNMGLPQNRIIFSPVAPKEEHVRRGQLADVCLDTPLCNGHTTGMDVLWAGTPMVTMPGETLASRVAASQLTCLGCLELIAKSRQEYEDIAVKLGTDLEYLKKIRGKVWKQRISSPLFNTKQYTMELERLYLQMWEHYAAGNKPDHMIKPVEVTESA
[3]
  binding: binds weakly

B4: OGT detected with anti-OGT in HEK293T cells transfected with Flag-Fto constructs only (enzyme, UniProt O15294 1-1046)
chain: B3 chain with E495D, P765A, S972N, I993V
Flag-FTO (S226A) (mouse)
  binding: binds
Flag-FTO (S237A) (mouse)
  binding: binds
Flag-FTO (S95A) (mouse) [6]
  binding: binds
Flag-FTO (T92A) (mouse)
  binding: binds
[7]
  binding: binds

B5: Myc-OGT, full length, wild type (HEK293T) (enzyme, UniProt Q8CGY8 1-1046)
chain: B3 chain
[5]
  binding: binds
